PubChem BioAssay AID686979 (National Center for Advancing Translational Sciences (NCATS), 2013)
Out of some 420,000 compounds screened, about 50,000 (12%) were called active. The inconclusive results got no clear call from the source; some entries with a clear call stand among them for comparison. The call rests on the fitted dose curve; in most records, active means well fitted inhibition curve with a large enough effect; inconclusive means small, poorly fitted or top-dose-only effect; inactive means flat fitted curve, though single readings scatter. Potencies of inconclusive entries are left out as doubtful fits.
On the % scale 0 is the no-effect control and ±100 the full control effect; potency means the concentration at half of the fitted maximal effect; tags describe the fitted curve by direction and shape.

Experiment: qHTS for Inhibitors of human tyrosyl-DNA phosphodiesterase 1 (TDP1): qHTS in cells in presence of CPT; further: nearly all actives have a fitted effect of over 55% in size
Conditions: chicken DT40 Tdp1-/-;hTDP1 cells + 20 nM CPT, ATP luminescence, 48 h; activity change, negative = growth inhibition: at 46.2 µM (top of the series) unless noted
Procedure, shortened: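 Cell growth measured by CellTiter-Glo luminescence after a minimum 48 h, 37 C compound exposure with 20 nM CPT in Tdp1-knockout DT40 cells stably expressing hTDP1, seeded 400/well; qHTS titration format.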
In the case of `COc1ccccc1CCNC(=O)C(=O)NCCC1CCCCN1S(=O)(=O)c1cccs1` (stereo not given), the Potency was inconclusive [inhibitor, single point]. In the case of `O=C(Nc1ccc(S(=O)(=O)N2CCCCC2)cc1)c1ccc(=O)[nH]c1`, the Potency was inconclusive [inhibitor, partial curve]. For `Cc1ccc(-n2nc(CO)c(C(=O)NCc3cccnc3)n2)cc1`, the Potency was inconclusive [inhibitor, single point]. For `S=C(NCCc1ccccn1)Nc1ccc(Cl)c(Cl)c1`, the Potency was inconclusive [inhibitor, single point]. For `CC(Sc1nnc(CN2CCCC2)n1Cc1ccccc1)C(=O)Nc1ccc(F)c(F)c1F` (stereo not given), the Potency was inconclusive [inhibitor, single point]. With `C[C@H](NC(=O)c1ccco1)C(=O)NNC(=O)c1ccc(F)cc1` the activity change, negative = growth inhibition was inconclusive: -30.2% [inhibitor]. In the case of `O=C(c1ccccc1)c1c[nH]cc1-c1ccccc1`, the Potency was “inactive”. In the case of `CCc1ccccc1NC1c2ccccc2C(=O)N1c1cc(C)ccn1` (stereo not given), the Potency was inconclusive [inhibitor, single point]. For `Cc1cc(C2CC(=O)Nc3ccccc3S2)c(C)s1` (stereo not given), the Potency was inconclusive [inhibitor, single point]. In the case of `O=C(NC1CCCCC1)C(c1ccc(F)cc1)N(Cc1ccco1)C(=O)Cn1nnc2ccccc21` (stereo not given), the Potency was “inactive”. For `COc1ccccc1N1CCN(c2nnc(-c3ccc(F)cc3)c3ccccc23)CC1`, the Potency was inconclusive [inhibitor, single point]. With `COc1ccccc1NC(=O)CSc1ncc2c(n1)-c1cc(Cl)ccc1N(Cc1ccccc1)S2(=O)=O` the Potency was inconclusive [inhibitor, single point]. For `C=CCOc1ccc(C2NC(=S)NC3=C2CCc2ccccc23)cc1` (stereo not given), the Potency was inconclusive [inhibitor, single point]. For `CC(=O)Nc1ccc(C23CC4CC(CC(C4)C2)C3)cc1`, the Potency was “inactive”. For `CCCCS(=O)(=O)Nc1ccc(C)cn1`, the Potency was inconclusive [inhibitor, partial curve]. For `CCC(=O)c1ccc(OCC(O)Cn2nc(C)c(Br)c2C)cc1` (stereo not given), the Potency was inconclusive [inhibitor, partial curve]. With `Cc1nnn(C23C[C@@H]4C[C@@H](CC(C(=O)N5CCN(c6ccccc6)CC5)(C4)C2)C3)n1` the Potency was active: 18.4 µM. For `CCOc1ccccc1NC(=S)NCC1CCCO1` (stereo not given), the Potency was “inactive”. In the case of `CC[C@]12c3[nH]c4ccccc4c3CCN1C(=O)C(CC(=O)NCCC1=CCCCC1)C[C@@H]2C(=O)N1CCN(C(=O)c2ccco2)CC1` (stereo not given in full), the Potency was inconclusive [inhibitor, single point]. For `CC(=O)c1c(C)[nH]c(C(=O)N(C)CC(=O)Nc2ccc(Cl)c(C(F)(F)F)c2)c1C`, the Potency was inconclusive [inhibitor, single point]. With `Cc1ccc(OCC(=O)Nc2ccc3nc(SCC(=O)N4CCOCC4)sc3c2)cc1` the Potency was inconclusive [inhibitor, single point]. In the case of `COc1cccc(N2CCN(C(=O)CN3C(=O)NC4(CCCC4)C3=O)CC2)c1`, the Potency was “inactive”. For `Cc1ccc(C(CC(=O)NCc2ccco2)c2ccc(OC(C)C)cc2)cc1` (stereo not given), the Potency was inconclusive [inhibitor, partial curve]. For `CCCCNC(=O)CCCn1c(=O)c2ccccc2n(Cc2cccc(Cl)c2)c1=O`, the Potency was active: 23.1 µM. In the case of `CC(C)n1nc(C(=O)Nc2cccc(S(=O)(=O)N3CCOCC3)c2)c2ccccc2c1=O`, the Potency was active: 20.6 µM. With `Oc1ccccc1N1CCN(c2nnnn2-c2ccccc2)CC1` the Potency was inconclusive [inhibitor, single point]. For `COc1ccc(C2=NOC(C(=O)NCc3ccco3)C2)cc1OC` (stereo not given), the Potency was active: 2.59 µM. In the case of `CCCCc1c(C)nc2c(-c3ccc(OC)cc3)c(C)[nH]n2c1=O`, the Potency was active: 16.4 µM. In the case of `COc1ccc(/C=N/N=C/c2ccc(OC)c(O)c2)cc1O`, the Potency was “inactive”. For `CSc1nnc(-c2sc(-c3ccccc3)nc2C)n1C`, the Potency was “inactive”. With `OC(CN1CCN(Cc2ccccc2)CC1)c1ccc(F)cc1` (stereo not given) the Potency was “inactive”. With `Cc1cccc(NC(=O)Nc2cc(C)cc(C)n2)c1` the Potency was “inactive”. In the case of `CCOC(=O)N1CCC(=NNS(=O)(=O)c2cccc([N+](=O)[O-])c2)CC1`, the Potency was “inactive”. For `O=C1c2ccccc2C(=O)N1CCCc1nc2ccccc2c(=O)n1Cc1ccco1`, the Potency was active: 20.6 µM. With `O=C(NC1CCCC1)c1cc(Nc2cccc(C(F)(F)F)c2)nc2ccccc12` the Potency was inconclusive [inhibitor, partial curve]. With `CCOC(=O)C1=C(C)N(C[C@@H]2CC[C@@H](Cc3ccc(-c4ccccc4)cc3)O2)C(=O)NC1c1cccc([N+](=O)[O-])c1` (stereo not given in full) the Potency was inconclusive [inhibitor, single point]. In the case of `Cc1ccc(C(=O)NCc2ccc3c(c2)OCO3)cc1Cl`, the Potency was inconclusive [inhibitor, single point]. With `Nc1c(C(=O)N2CCCCC2)sc2nc3c(cc12)CCCC3` the Potency was “inactive”. With `COC(=O)CC1[C@@]2(C)C[C@]34OC5(C)OC6(C7CC(=O)OC(c8ccoc8)[C@]7(C)CCC6(O5)[C@]13C)C(OC(C)=O)[C@]4(OC(C)=O)C2OC(C)=O` (stereo not given in full) the Potency was “inactive”. In the case of `O=C(NCCCC1CCCC1)C1CCC(=O)N(Cc2ccc(Cl)cc2)C1` (stereo not given), the Potency was inconclusive [inhibitor, single point]. For `CCN(CC)C(=O)c1sc2nc(Cc3ccccc3)[nH]c(=O)c2c1C`, the activity change, negative = growth inhibition was inconclusive: -30.2% [inhibitor]. For `Cc1[nH]n(-c2ccc(Br)cc2)c(=O)c1/C=N/NC(=O)c1ccccc1`, the Potency was active: 4.61 µM. With `Cc1ccc(Cc2cnc(NC(=O)/C(C#N)=C/c3ccc(-c4cccc([N+](=O)[O-])c4)o3)s2)cc1` the Potency was inconclusive [inhibitor, single point]. In the case of `COc1cc(/C=C(\C#N)c2ccccn2)ccc1OCc1ccc(Cl)cc1`, the Potency was inconclusive [inhibitor, single point]. For `CC(C)(C)N=C1NC(=NC(C)(C)C)c2ccccc21`, the Potency was inconclusive [inhibitor, single point].
